Results on one molecule are retold here after publication PMC6019326 (Nature medicine, 2017).

In this assay the target is T1, recombinant APOL1 G0 protein (His-tag fused, reference allele) (human, UniProt O14791-1 28-398).
T1 sequence (looked up): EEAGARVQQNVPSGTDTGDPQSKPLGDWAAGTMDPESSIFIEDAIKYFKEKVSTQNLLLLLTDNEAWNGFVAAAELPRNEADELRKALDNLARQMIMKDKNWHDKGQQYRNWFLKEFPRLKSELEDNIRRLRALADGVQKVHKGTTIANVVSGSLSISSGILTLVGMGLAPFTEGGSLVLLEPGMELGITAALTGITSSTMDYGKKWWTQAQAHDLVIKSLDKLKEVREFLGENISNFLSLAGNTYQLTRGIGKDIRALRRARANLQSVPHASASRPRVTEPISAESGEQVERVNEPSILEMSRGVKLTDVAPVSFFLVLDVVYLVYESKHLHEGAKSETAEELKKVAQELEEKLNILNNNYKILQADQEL
Put plainly: SPR.

B1: human suPAR (soluble urokinase plasminogen activator receptor), recombinant (receptor)
chain: not shown
In the case of B1, the “KD for suPAR in the presence of αvβ3 integrin (5 nM) with Mn2+” value is 665 nM.
